Results taken from ChEMBL document CHEMBL1201862, “PubChem BioAssay data set” (2004).
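48-hour exposure; five concentrations; linearly interpolated endpoints. Abbreviation: GI50, concentration required for 50% inhibition of growth.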 Activity calls are given as the source filed them. Cut-off read from the data, not from the text of the source: active = GI50 up to about 1.1 µM and inactive = higher. Bridge positions count the residues as written; N and C are the ends. Square brackets hold non-standard residues; d marks the D form. Peptide text beside a SMILES is read from it. * marks the point of attachment. ξ: configuration not given here. X21 = O=C(/C=C/C=C/C=C/C=C/C=C/C(=O)*)NC1=C(O)CCC1=O; NMeA = CN[C@@H](C)C(=O)O; ξF = NC(Cc1ccccc1)C(=O)O; ξA = CC(N)C(=O)O

What follows are compounds tested on NCI-H322M (assay: NCI anticancer screen, dose series, 48 h).
In the case of `CC1=C2C(=C[C@@](C)(CO)[C@@H]2O)C(=O)[C@](C)(O)C12CC2` [ILLUDIN], the GI50 is reported as active: 0.0194 µM.
For `COC(=O)/N=[N+](\[O-])C(c1ccccc1)c1ccccc1`, the GI50 was inactive: > 100 µM.
With `CCOC(=O)NC/C=C/CO` the GI50 was inactive: > 100 µM.
In the case of `CCOC(=O)c1ccc(/N=C2\SC(=S)N(c3ccc(F)cc3)\C2=N/c2ccc(C(=O)OCC)cc2)cc1`, the GI50 is reported as inactive: > 100 µM.
With `CC1NC(=O)CNC(=O)CNC(=O)C(Cc2ccc(O)cc2)NC(=O)C(C(C)C)NC(=O)C(C)NC1=O` (stereo not drawn) (cyclo(GGAAVY); configuration not given here) the GI50 was inactive: > 100 µM.
With `CC(=O)OC(C(=O)NNC(=O)OC(C)(C)C)c1ccccc1` (stereo not drawn) the GI50 was inactive: > 100 µM.
For `O=C1CSC(c2c[nH]c3ccccc23)N1c1cccc([N+](=O)[O-])c1` (stereo not drawn), the GI50 was inactive: > 100 µM.
`C=CCCC(O)c1cc(C)c(O)c(C)c1` (stereo not drawn) was tested, and the GI50 was inactive: > 100 µM.
In the case of `Cc1ccc(-c2c(C#N)c(N)nc3c2CCS(=O)(=O)c2ccccc2-3)cc1`, the GI50 is reported as inactive: 83.2 µM.
For `CCC1CCC2CCCC(C)N12` (stereo not drawn), the GI50 was inactive: > 100 µM.
For `O=C(Nc1c(O)[nH]c(=S)[nH]c1=O)c1ccccn1`, the GI50 was inactive: > 100 µM.
With `CCCc1n[nH]c(CCC(=O)N(Cc2ccccc2)Cc2ccccc2)c1CC` the GI50 was inactive: > 100 µM.
In the case of `COc1ccc(Cn2c3ccc([N+](=O)[O-])cc3c(=O)n2Cc2ccccn2)cc1`, the GI50 is reported as inactive: > 100 µM.
In the case of `C=CCCCN1CCCCC1=S`, the GI50 is reported as inactive: > 100 µM.
With `COc1ccc(OC)c([N+](=O)[O-])c1-c1nc2sc(C)cn2c1/C=N/N=C(N)N` the GI50 was inactive: 13.6 µM.
In the case of `FC(F)(F)c1cc(C2SCc3nc4ccccc4n32)cc(C(F)(F)F)c1` (stereo not drawn), the GI50 is reported as inactive: > 100 µM.
In the case of `CN(C)CC(CO)(CN(C)C)CN(C)C`, the GI50 is reported as inactive: > 100 µM.
`Cc1csc2nc3c(cnn3C)c(=S)n12` was tested, and the GI50 was inactive: > 100 µM.
In the case of `CCN(CC)CCOc1ccc(CCc2cc(OC)c(OC)c(OC)c2)cc1`, the GI50 is reported as inactive: > 100 µM.
For `O=C(N/N=C/c1ccc(O)cc1)NNCCO`, the GI50 was inactive: > 100 µM.
For `CC1NC(=O)[C@H](C)N(C)C(=O)[C@@H]2CCCN2C(=O)[C@@H](NC(=O)C(Cc2ccccc2)NC(=O)/C=C/C=C/C=C/C=C/C=C/C(=O)NC2=C(O)CCC2=O)COC(=O)[C@@H]2CCCN2C1=O` (stereo partly drawn) (X21-[ξF]SP[NMeA][ξA]P; ester 2-C), the GI50 was inactive: > 100 µM.
`Nc1nc(O)c(N)c(NCCOCP(=O)(O)O)n1` was tested, and the GI50 was inactive: > 100 µM.
In the case of `c1ccc2c(c1)CCc1[nH]c3c(c1-2)-c1ccccc1CC3`, the GI50 is reported as inactive: > 100 µM.
In the case of `CC(=N/NC(=S)N1CCCCC1)/C(C)=N\NC(=S)N1CCCCC1`, the GI50 is reported as inactive: 1.75 µM.
With `COc1ccc(/C=C/c2cc(OC)c(O[Si](C)(C)C(C)(C)C)c(OC)c2)cc1` the GI50 was inactive: > 100 µM.
In the case of `Cc1nc(N)nc2ccccc12`, the GI50 is reported as inactive: > 100 µM.
In the case of `Cc1ccc2nc(NC(=O)/C(Cc3nc4ccc(Cl)cc4nc3O)=N\NC(C)(C)C)sc2c1`, the GI50 is reported as inactive: > 100 µM.
For `CC1(C)C[C@H]2C=C(C=O)[C@]34C[C@]3(C(=O)OC4O)[C@H]2C1` (stereo partly drawn), the GI50 was inactive: 5.52 µM.
For `CCOC(=O)NC(Nc1ncccn1)(C(=O)OCC)C(F)(F)F` (stereo not drawn), the GI50 was inactive: > 100 µM.
`CC(=O)C(=[N+]=[N-])C(=O)NCC#N` was tested, and the GI50 was inactive: > 10 µM.
In the case of `COc1cc2cc(C(=O)N3CC(CCl)c4c3cc([N+](C)(C)Cc3ccc([N+](=O)[O-])n3C)c3ccccc43)[nH]c2c(OC)c1OC` (stereo not drawn), the GI50 is reported as inactive: 2.14 µM.
`CSC1=NN(c2ccccc2)C(=O)C1=C(SC)SC` was tested, and the GI50 was inactive: 22.5 µM.
With `O=c1oc2c(Cl)cc(Cl)cc2cc1-c1cn2c(n1)sc1ccccc12` the GI50 was inactive: 76 µM.
With `O=c1[nH]c(=O)n(C2CC(O)C(CO)O2)c2nc3ccc4cc5ccccc5cc4c3nc12` (stereo not drawn) the GI50 was inactive: > 100 µM.
`CN1N=C(c2ccncc2)OC1c1cccc(C(F)(F)F)c1` (stereo not drawn) was tested, and the GI50 was inactive: > 100 µM.
`O=C(O)C1=CCCc2ccc3ccccc3c21` was tested, and the GI50 was inactive: > 100 µM.
For `NC(=O)NNc1nc2ccccc2c(=O)n1NC(=O)C(=O)Nc1ccc(Cl)cc1Cl`, the GI50 was inactive: > 100 µM.
In the case of `Cc1nc2ccc(NC3OCC(O)C(O)C3O)cc2c(=O)n1-c1ccccc1` (stereo not drawn), the GI50 is reported as inactive: > 100 µM.
In the case of `O=C(Nc1nccs1)NS(=O)(=O)n1cnc2ccccc21`, the GI50 is reported as inactive: > 100 µM.
`Nc1nc2[nH]cnc2c(=O)[nH]1` was tested, and the GI50 was inactive: > 100 µM.
For `CNn1c(-c2ccc(C)cc2)n[nH]c1=O`, the GI50 was inactive: > 100 µM.
In the case of `NC1=C(C(=O)O)C(=O)C(Nc2c(O)cccc2C(=O)O)=CC1=O`, the GI50 is reported as inactive: 1.15 µM.
`COc1ccc(C(=O)c2sc(Nc3ccccc3)nc2N)cc1` was tested, and the GI50 was inactive: > 100 µM.
